These are yes or no findings as the source states them, for the method shown. In cells and extracts the contact can be indirect. Some entries that bind do so weakly or less than the wild type. For some assays here: Where a sequence is shown, tags or fusion partners need not be part of it.
Assays:
Test in all cases: co-IP; anti-GET4 or anti-BAG6 antibody coupled to Dynabeads, incubated with ER-Mito reporter cell lysate (3-5 mg protein) for 24 h at 4 °C; lysis and wash buffer 20 mM Tris pH 7.5, 100 mM NaCl, 1% Triton, 10% glycerol; western blot; clones 1 and 2
[1] = target: BAG6 (human (endogenous in HeLa)) (UniProt P46379)
[2] = target: GET4 (human (endogenous in HeLa)) (UniProt Q7L5D6)
[3] = target: BAG6 (human (endogenous in HeLa)), P46379; conditions: remark: other sources report otherwise

Sequences of proteins named here, by UniProt entry; tags and fusion partners are left off. Residues count along the entry.
UniProt Q7L5D6: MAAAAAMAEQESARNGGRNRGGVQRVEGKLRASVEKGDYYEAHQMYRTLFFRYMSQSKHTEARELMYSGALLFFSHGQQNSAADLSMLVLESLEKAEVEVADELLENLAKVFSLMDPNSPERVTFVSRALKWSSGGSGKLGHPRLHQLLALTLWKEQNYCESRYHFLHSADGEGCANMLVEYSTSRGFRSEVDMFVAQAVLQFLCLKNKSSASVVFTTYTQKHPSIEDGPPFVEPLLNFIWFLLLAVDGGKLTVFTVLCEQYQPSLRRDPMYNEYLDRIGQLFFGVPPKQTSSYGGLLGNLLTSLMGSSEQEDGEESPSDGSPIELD
UniProt P38646, residues 47-679: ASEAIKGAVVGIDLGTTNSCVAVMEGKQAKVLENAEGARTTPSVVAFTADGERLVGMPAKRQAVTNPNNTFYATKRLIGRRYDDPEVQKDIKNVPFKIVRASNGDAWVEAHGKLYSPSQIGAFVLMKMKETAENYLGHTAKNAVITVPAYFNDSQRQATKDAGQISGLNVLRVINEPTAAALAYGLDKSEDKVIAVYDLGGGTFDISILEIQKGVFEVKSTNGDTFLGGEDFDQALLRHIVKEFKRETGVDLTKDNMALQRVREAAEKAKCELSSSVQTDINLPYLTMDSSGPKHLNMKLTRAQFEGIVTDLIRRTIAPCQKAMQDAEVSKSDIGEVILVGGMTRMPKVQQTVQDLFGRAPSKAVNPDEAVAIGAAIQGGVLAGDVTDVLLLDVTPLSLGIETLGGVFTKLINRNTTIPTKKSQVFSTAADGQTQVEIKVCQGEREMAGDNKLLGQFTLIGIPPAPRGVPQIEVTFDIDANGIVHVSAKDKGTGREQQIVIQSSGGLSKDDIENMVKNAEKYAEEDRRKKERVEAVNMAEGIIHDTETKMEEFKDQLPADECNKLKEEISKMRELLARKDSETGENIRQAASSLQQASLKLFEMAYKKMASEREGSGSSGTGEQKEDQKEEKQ
UniProt P21796: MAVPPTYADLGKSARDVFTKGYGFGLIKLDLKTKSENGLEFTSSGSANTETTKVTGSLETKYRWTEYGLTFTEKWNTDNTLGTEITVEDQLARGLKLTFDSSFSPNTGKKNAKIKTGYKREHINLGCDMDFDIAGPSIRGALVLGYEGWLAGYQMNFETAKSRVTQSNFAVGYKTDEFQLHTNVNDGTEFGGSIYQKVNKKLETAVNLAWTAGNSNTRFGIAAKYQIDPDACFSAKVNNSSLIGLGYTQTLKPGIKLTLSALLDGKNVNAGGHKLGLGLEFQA

binding [1]	binding [2]	binding [3]	Molecule
binds	no binding		glucose-regulated protein 75 (GRP75) (from UniProt P38646 47-679)
no binding	no binding		voltage-dependent anion-selective channel protein 1 (VDAC1) (from UniProt P21796 1-283)
		no binding	mitofusin 2 (MFN2), O95140 1-757 (protein) MSLLFSRCNSIVTVKKNKRHMAEVNASPLKHFVTAKKKINGIFEQLGAYIQESATFLEDTYRNAELDPVTTEEQVLDVKGYLSKVRGISEVLARRHMKVAFFGRTSNGKSTVINAMLWDKVLPSGIGHTTNCFLRVEGTDGHEAFLLTEGSEEKRSAKTVNQLAHALHQDKQLHAGSLVSVMWPNSKCPLLKDDLVLMDSPGIDVTTELDSWIDKFCLDADVFVLVANSESTLMQTEKHFFHKVSERLSRPNIFILNNRWDASASEPEYMEEVRRQHMERCTSFLVDELGVVDRSQAGDRIFFVSAKEVLNARIQKAQGMPEGGGALAEGFQVRMFEFQNFERRFEECISQSAVKTKFEQHTVRAKQIAEAVRLIMDSLHMAAREQQVYCEEMREERQDRLKFIDKQLELLAQDYKLRIKQITEEVERQVSTAMAEEIRRLSVLVDDYQMDFHPSPVVLKVYKNELHRHIEEGLGRNMSDRCSTAITNSLQTMQQDMIDGLKPLLPVSVRSQIDMLVPRQCFSLNYDLNCDKLCADFQEDIEFHFSLGWTMLVNRFLGPKNSRRALMGYNDQVQRPIPLTPANPSMPPLPQGSLTQEEFMVSMVTGLASLTSRTSMGILVVGGVVWKAVGWRLIALSFGLYGLLYVYERLTWTTKAKERAFKRQFVEHASEKLQLVISYTGSNCSHQVQQELSGTFAHLCQQVDVTRENLEQEIAAMNKKIEVLDSLQSKAKLLRNKAGWLDSELNMFTHQYLQPSR
